Measured values: ChEMBL document CHEMBL1201862, “PubChem BioAssay data set” (2004)
Values joined by “and” are separate entries in the source; they are usually repeats but may differ in a detail not shown here. Equal entries are not always repeated.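 Grown in 96-well plates, cells were treated for 48 hours with each compound at five concentrations. Insufficient inhibition: endpoint recorded as highest concentration tested. Here, GI50 denotes the concentration required for 50% inhibition of growth.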 Active and inactive are the calls of the source. Cut-off read from the data, not from the text of the source: active = GI50 up to about 1.1 µM and inactive = higher.

What follows are compounds tested on NCI-H322M (assay: growth of human tumour cells (NCI), 48 h).
With `COc1ccc2nc3cccc([N+](=O)[O-])c3c(NCCC(=O)O)c2c1` the GI50 was inactive: > 10 µM.
`OCCc1ccsc1-c1sc(-c2cc(CCO)c(-c3sccc3CCO)s2)cc1CCO` was tested, and the GI50 was inactive: 10.2 µM.
In the case of `C/N=C(\N)c1ccc(NC(=N)c2ccc(C(=N)Nc3ccc(/C(N)=N/C)cc3)cc2)cc1`, the GI50 is reported as inactive: > 100 µM.
With `ClCCN(CCCl)c1ccc(/C=N/Nc2ccnc3ccccc23)cc1` the GI50 was inactive: 1.21 µM.
In the case of `O=C1Nc2ccccc2C(=O)/C1=C/NC(=S)NCc1ccccc1`, the GI50 is reported as inactive: > 100 µM.
For `COC(=O)C(Cc1c[nH]c2ccccc12)NC1=Nc2ccncc2S(=O)(=O)N1c1cccc(OC(C)C)c1` (stereo unspecified), the GI50 was inactive: 48.2 µM.
`CCOc1cc(C2CC(c3ccc(NS(=O)(=O)c4cc([N+](=O)[O-])ccc4C)cc3)=NN2C(=O)c2ccccc2)ccc1O` (stereo unspecified) was tested, and the GI50 was inactive: 41.1 µM.
For `COc1ccc(C[N+]23C(CC[C@H]2c2ccccc2)CC[C@H]3c2ccccc2)cc1` (stereo partly specified), the GI50 was inactive: 33.5 µM.
In the case of `CN(C)c1ccc(/C=C2\C[C@H]3[C@@H]4CCc5cc(OCCN6CCCC6)ccc5[C@H]4CC[C@]3(C)C2=O)cc1`, the GI50 is reported as inactive: 2.06 µM.
`O=C(OCc1ccccc1)C(Cc1ccc(OCc2ccccc2)cn1)NC(=O)C(F)(F)F` (stereo unspecified) was tested, and the GI50 was inactive: > 100 µM.
For `Cc1cccc2nc3cccc(C(=O)NCCC[N+](C)(CCCNC(=O)c4cccc5nc6cccc(C)c6nc45)Cc4c([N+](=O)[O-])ncn4C)c3nc12`, the GI50 was active: 1.06 µM.
In the case of `O=C(Cc1ccc([N+](=O)[O-])c([N+](=O)[O-])c1CC(=O)C(=O)Nc1cc(Cl)ccc1Cl)C(=O)Nc1cc(Cl)ccc1Cl`, the GI50 is reported as inactive: > 100 µM.
In the case of `C[C@]12CC[C@@H]3c4cc(Br)c(O)c(Br)c4CC[C@H]3[C@@H]1CC(Br)C2=O` (stereo partly specified), the GI50 is reported as inactive: 13.4 µM.
In the case of `CC(C)Cn1cnc2c(SCc3ccc(Cl)cc3Cl)nc(N)nc21`, the GI50 is reported as inactive: 86.3 µM.
`CC1(C)[C@@H](Cn2nnc3c(N)ncnc32)CC[C@@]1(C)CO` was tested, and the GI50 was inactive: > 100 µM.
In the case of `C/C(CCN(C)C)=N\OC(=O)c1ccccc1`, the GI50 is reported as inactive: > 100 µM.
With `CC(=O)O[C@H]1CC[C@@]2(C)C(=C/C(=N\[N+](=O)[O-])[C@H]3C4CCC([C@H](C)CCCC(C)C)[C@@]4(C)CCC32)C1` (stereo partly specified) the GI50 was inactive: > 100 µM.
With `CCOC(=O)c1c(N2CCCC2)ncn(-c2ccccc2)c1=S` the GI50 was inactive: > 100 µM.
With `Cc1ccc(S(=O)(=O)Nc2ccccc2C=O)cc1` the GI50 was inactive: 21.4 µM.
`COc1ccc(-c2c(C#N)c(O)n(C3OC(COC(C)=O)C(OC(C)=O)C(OC(C)=O)C3OC(C)=O)c(=S)c2C#N)cc1` (stereo unspecified) was tested, and the GI50 was inactive: 48 µM.
For `CC(=O)OC1COC(n2nc(/C=C/c3ccc(Cl)cc3)c(=O)n(/N=C/c3ccccc3)c2=S)C(OC(C)=O)C1OC(C)=O` (stereo unspecified), the GI50 was inactive: > 100 µM.
For `CCCCOCOc1ccccc1P1(=O)COc2ccccc2OC1`, the GI50 was inactive: > 100 µM.
For `COc1cccc(NC(=O)C(C#N)=C(SC)SC)c1`, the GI50 was inactive: 74 µM.
In the case of `O=C1NCC(NC(=O)C(F)(F)F)c2c(Br)sc(Br)c21` (stereo unspecified), the GI50 is reported as inactive: > 100 µM.
For `CC1(C)CC2(C)ON=C(c3ccccc3)N2c2ccccc2N1` (stereo unspecified), the GI50 was inactive: 24 µM.
For `C/C(=C1/CCC/C(=C(/C)c2ccccc2)C1=O)c1ccccc1`, the GI50 was inactive: > 100 µM.
With `CN1NC(c2ccccc2)=C(C#N)C(=O)CC1c1ccc(Br)cc1` (stereo unspecified) the GI50 was inactive: 36.1 µM.
In the case of `Oc1ccc(Cl)cc1/N=N\c1c(O)ccc2ccccc12`, the GI50 is reported as inactive: > 100 µM.
`COc1cc(/C=C2\CCC(C)(CN(C)C)C2=O)cc(OC)c1OC` (stereo unspecified) was tested, and the GI50 was inactive: > 100 µM.
`C[C@H](CCC(=O)NCCS(=O)(=O)O)[C@H]1CC[C@H]2[C@@H]3CC[C@@H]4C[C@H](O)CC[C@]4(C)[C@H]3CC[C@]12C` was tested, and the GI50 was inactive: > 100 µM.
In the case of `CC(=O)Nc1ccc(/C=C/c2ccc(NC(=O)Nc3ccc(/C=C/c4ccc(NC(C)=O)cc4S(=O)(=O)O)c(S(=O)(=O)O)c3)cc2S(=O)(=O)O)c(S(=O)(=O)O)c1`, the GI50 is reported as inactive: > 71.6 µM.
`COc1cc(O)c(C(=O)C2Cc3ccccc32)c(OC)c1` (stereo unspecified) was tested, and the GI50 was inactive: > 100 µM.
`O=c1c2cccc3cccc(c4n1CCN=4)c32` was tested, and the GI50 was inactive: 91 µM.
In the case of `CCCCCCCCCCCCCCCCc1c(C(=O)OC)[nH]c(=S)[nH]c1=O`, the GI50 is reported as inactive: > 50 µM.
For `Cc1oc2c(cc(O)c3cc(O)ccc32)c2cccc1-2`, the GI50 was inactive: > 100 µM.
`CC(=O)OCC1OC(n2c3c(cc(C#N)c2=S)CCCC3)C(OC(C)=O)C(OC(C)=O)C1OC(C)=O` (stereo unspecified) was tested, and the GI50 was inactive: > 100 µM.
In the case of `COc1cc(C(=O)O[C@@H]2[C@@H](OC(=O)c3cc(OC)c(OC)c(OC)c3)[C@@H](OC)O[C@@H]3CO[C@@H](c4ccccc4)O[C@@H]23)cc(OC)c1OC`, the GI50 is reported as inactive: > 100 µM.
For `NC1(C(=O)OCc2ccccc2)CCCC1`, the GI50 was inactive: 29.2 µM.
For `N#C/C(N)=C(C#N)/N=C/Nc1ccc(N)cc1`, the GI50 was inactive: 42.1 µM.
`O=C(/C(=C/c1cccs1)c1ccccc1)c1ccccc1` was tested, and the GI50 was inactive: > 100 µM.
In the case of `O=C1C=C(Nc2ccc(Cl)cc2Cl)c2ccccc2C1=O`, the GI50 is reported as inactive: 29.6 µM.
In the case of `Cc1ccc([N+](=O)[O-])cc1S(=O)(=O)Nc1ccc(C2=NOC(c3ccccc3O)C2)cc1` (stereo unspecified), the GI50 is reported as inactive: 28.3 µM.
For `C/C(=N\NC(=S)N1CCN(C2CCCCCC2)CC1)c1ccccn1`, the GI50 was active: 0.01 µM.
For `CC1(C)C/C(=N/O)c2c(nc3ccc4ccccc4c3c2-c2ccc(Cl)cc2)C1`, the GI50 was inactive: 66.8 µM.
In the case of `O=C1NC(=S)N/C1=C/c1c(-c2ccccc2)[nH]c2ccccc12`, the GI50 is reported as inactive: 17.2 µM.
`C/C(=N\Nc1nc2ccccc2[nH]1)c1ccncn1` was tested, and the GI50 was active: 0.184 µM.
In the case of `Cc1c(-c2ccccc2)c(C#N)c2nnn(C)c(=O)n12`, the GI50 is reported as inactive: > 100 µM.
With `Nc1nc(O)c2nc3c(nc2n1)C(=O)N(c1ccc(C(=O)O)cc1)C3` the GI50 was inactive: > 100 µM.
With `CC(C)[Si](OCC/C=C/C1CCC(=O)C1C(O)C1CCCCC1)(C(C)C)C(C)C` (stereo unspecified) the GI50 was inactive: 15.4 µM.
With `CCC(C#N)NCc1cccc(CNC(C#N)CC)c1` (stereo unspecified) the GI50 was inactive: > 100 µM.
`O=C/C(=C1/C=Cc2cc([N+](=O)[O-])ccc2S1)c1ccccc1` was tested, and the GI50 was inactive: > 100 µM.
`C=C1C2Oc3ccccc3C1N(c1ccccc1)O2` (stereo unspecified) was tested, and the GI50 was inactive: > 100 µM.
In the case of `COc1ccc(-c2cc(-c3ccc(O)cc3O)c(C#N)c(=O)[nH]2)cc1`, the GI50 is reported as inactive: 22.8 µM.
`Cc1c2cccc-2ccc2c3ccccc3n(C(=O)c3ccc(Cl)cc3)c12` was tested, and the GI50 was inactive: > 100 µM.
In the case of `O=C1NC(Nc2ccccc2Cl)=N/C1=C\c1c(Cl)cccc1Cl`, the GI50 is reported as inactive: 34 µM.
For `CCOC1=C2N=C(C(CC)c3ccc(F)cc3)N=C2C(=O)c2ccccc21` (stereo unspecified), the GI50 was inactive: 48.9 µM.
With `Cc1ccc(CC2(C(=O)O)Cc3ccc(C)cc3C2)cc1` (stereo unspecified) the GI50 was inactive: > 100 µM.
In the case of `COc1ccc(/C=C2\C[C@H]3[C@@H]4CC=C5C[C@@H](OC(C)=O)CC[C@]5(C)[C@H]4CC[C@]3(C)\C2=N\O)cc1OC`, the GI50 is reported as inactive: 22.3 µM.
For `Cc1c(CCCl)c(N=P(c2ccccc2)(c2ccccc2)c2ccccc2)n2c(nc3ccccc32)c1C#N`, the GI50 was inactive: > 10 µM.
`CCOc1ccc(NC(=O)/C(=N\N)C(C(=O)OC)c2nc3ccc(Cl)cc3nc2O)cc1` (stereo unspecified) was tested, and the GI50 was inactive: > 100 µM.
In the case of `O=C(O)C1CCc2ccc3ccccc3c2C1c1cccc2ccccc12` (stereo unspecified), the GI50 is reported as inactive: 18.2 µM.
For `COc1ccc(C(SCC(N)C(=O)O)(c2ccc(OC)cc2)c2ccc(OC)cc2)cc1` (stereo unspecified), the GI50 was inactive: 14.7 µM.
With `CCCC(=O)C1=C(O)C(Cc2c(O)c(C)c(O)c(C(=O)CCC)c2O)=C(O)C(C)(C)C1=O` the GI50 was inactive: 22.2 µM.
With `CSc1c(C(=O)Nc2ccccc2)c(N)n(N)c(=O)c1C#N` the GI50 was inactive: > 100 µM.
In the case of `Clc1ccc(C2=Nc3ccccc3SC(c3ccc(Cl)c(Cl)c3)C2)c(Cl)c1` (stereo unspecified), the GI50 is reported as inactive: 18.6 µM.
`Cc1ccc([S+]([O-])(=Nc2ccccc2)C(C(C)C)C(C)(C)Cl)cc1` (stereo unspecified) was tested, and the GI50 was inactive: 4.04 µM.
With `CCOC(=O)c1c(NS(=O)(=O)c2ccc(C)cc2)sc2c1CCCC2` the GI50 was inactive: 43.9 µM.
In the case of `C=CC(=O)NC(=N)NC#N`, the GI50 is reported as inactive: 177 µM.
In the case of `O=c1[nH]c(=O)n([C@@H]2O[C@H](CO)[C@@H](O)[C@H]2O)cc1F` [5-FLUOROURIDINE], the GI50 is reported as active: 0.437 µM.
For `Cn1c(N)nc(=O)c2c1N(C1OC(CO)C(O)C1O)CN2Cc1ccccc1` (stereo unspecified), the GI50 was inactive: > 100 µM.
With `O=S1(=O)Cc2ccc3c4c2-c2c(ccc5ccc(c-4c25)CS(=O)(=O)C3)C1` the GI50 was inactive: > 100 µM.
With `COC(=O)c1ccccc1NC(=O)C(=O)NNC(=O)c1ccncc1` the GI50 was inactive: > 100 µM.
In the case of `O=C(C(=O)c1cc2ccccc2[nH]1)c1cc2ccccc2[nH]1`, the GI50 is reported as inactive: > 347 µM.
`O=C1NC(=S)NC(=O)C1=Cc1cc2c(cc1[N+](=O)[O-])OCO2` was tested, and the GI50 was inactive: > 100 µM.
For `CC(=O)OC[C@@]12Cc3ccc(C)c(O)c3[C@]1(C)[C@@H](OC(C)=O)[C@]1(O)[C@H]([C@@H](OC(=O)c3ccccc3)[C@@H](C)[C@H]1OC(C)=O)[C@H]2OC(C)=O`, the GI50 was inactive: > 50 µM.
In the case of `Cc1cccc(Nc2cc(Cl)nc(SCC(=O)O)n2)c1C` [PIRINIXIC ACID], the GI50 is reported as inactive: > 100 µM.
In the case of `c1ccc(C[N+]23C(CC[C@H]2c2ccccc2)CC[C@H]3c2ccccc2)cc1` (stereo partly specified), the GI50 is reported as inactive: 75.5 µM.
For `CCOC(=O)Nc1ccc(S(=O)(=O)OC)cc1.CCOC(=O)Nc1ccc(S(=O)(=O)OC)cc1.NC(=O)NCCO`, the GI50 was inactive: > 50 µM.
In the case of `COc1cc2c(cc1O)[C@@H]1Cc3c(cc(OC)c(OC)c3Oc3cc4c(cc3OC)CCN(C)[C@@H]4Cc3ccc(O)cc3)[C@H](C2)N1C`, the GI50 is reported as inactive: > 100 µM.
With `Clc1ccc(OC2CCO2)cc1Cl` (stereo unspecified) the GI50 was inactive: > 100 µM.
In the case of `CCn1c(CSc2nc(-c3ccccc3)c(-c3ccccc3)[nH]2)n[nH]c1=S`, the GI50 is reported as inactive: > 100 µM.
With `COc1cc(Cn2c3c(c4cc(O)ccc42)C(=O)c2ccccc2C3=O)cc(OC)c1` the GI50 was inactive: 15.2 µM.
With `CCCCCCCCCCCCCCCCP(=O)(O)OP(=O)(O)OCC1OC(n2ccc(N)nc2=O)C(O)C1O` (stereo unspecified) the GI50 was inactive: > 100 µM and inactive: > 62.4 µM.
`Cn1c(=O)c2c(nc3n(Cc4ccccc4)c(=O)c(NCCBr)cn23)n(C)c1=O` was tested, and the GI50 was inactive: 37.5 µM.
In the case of `O=C(O)CCc1cccc2c1oc1c(CCC(=O)O)cccc12`, the GI50 is reported as inactive: > 100 µM.
With `COC(=O)c1c(C)cccc1C1CN=NC12Cc1cccc(C)c1C2=O` (stereo unspecified) the GI50 was inactive: 44 µM.
